The whole screen tested about 48,000 compounds, of which about 120 (0.25%) were called active. About 4% were inconclusive and are not listed. Calls come from the whole dose curve; as a rule, active = well fitted activation curve with a large enough effect; inconclusive = small, poorly fitted or top-dose-only effect, or another doubt; inactive = no such curve, though single readings can be large or run the other way. The list shows a part of the results.
Experiment: Primary qHTS for Identification of Small Molecule Activators of Huntingtin-Antisense Promoter Activity; note: nearly all actives have a fitted effect of over 55% in size
Details: HEK293 HTT-AS promoter firefly luciferase reporter, 24 h; series mostly up to 57.5 µM; activity change, positive = activation: at the top concentration
Summary of the method: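 HEK293 luciferase promoter-reporter cells (2,500/well) plated 24 h, then compounds added at up to 57.5 uM final for 24 h at 37 °C. Firefly luminescence by Dual-Glo, normalized to vehicle (0%) and zero RLU (-100%).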

Activity change, positive = activation, inactive:
CCCc1nc2nc(C)c(NS(=O)(=O)c3ccc(CC(C)C)cc3)c(=O)n2[nH]1 -10.6%
O=S(=O)(c1ccc(Cl)cc1)c1nc(-c2cccs2)oc1SCc1ccc(F)cc1 -11.5%
COc1cccc(CNC(=O)Cc2c(C)c3c(cc(C)c4c(C)c(C)oc43)oc2=O)c1 -1.17%
Cn1nnc2c(NCc3ccc(Cl)cc3)ncnc21 -16.2%
COc1ccc(OC)c(NC(=O)C2Cc3ccccc3CN2S(=O)(=O)c2ccc(F)cc2)c1 (centres undefined) -31%
CC1=C(C(=O)Nc2ccc(Cl)cc2)C(c2ccccc2F)n2nc(SCc3cccc(Cl)c3)nc2N1 (centres undefined) -4.17%
O=C(Nc1nc2ccccc2n1CCN1CCOCC1)c1cccc([N+](=O)[O-])c1 10.1%
CCc1ccc(CNC(=O)c2cc3n(n2)CCCN(Cc2ccccc2)C3=O)cc1 -23.2%
Cc1ccc(Cn2c(=O)n(CCc3ccc(Cl)cc3)c(=O)c3ccccc32)cc1 2.92%
Cc1ccc(-n2ncc3c(NC(C)c4ccccc4)ncnc32)cc1 (centres undefined) 11%
COc1ccc(NC(=O)Cn2c(=O)n(Cc3ccccc3OC)c(=O)c3cccnc32)cc1Cl -15.4%
CCOC(=O)Cc1ccc(NC(=O)N2CCSc3ccccc32)cc1 -4.92%
Cc1ccc(-c2nc(CS(=O)CC(=O)NCc3ccccc3Cl)c(C)o2)cc1 (centres undefined) -11%
COCCNC(=O)C1CCN(C(=O)c2cc3sccc3n2Cc2ccc(Cl)cc2)CC1 -50.5%
CCCN(CCC)CCCNC(=O)C1CCCN(Cc2nc(-c3ccc(Cl)cc3)oc2C)C1 (centres undefined) -26.5%
COc1ccccc1NC(=O)CSC1=Nc2ccccc2C2=NC(CCC(=O)NCc3ccco3)C(=O)N12 (centres undefined) -10.5%
O=c1ccc2cc(S(=O)(=O)Nc3ccc(F)c(Cl)c3)ccc2[nH]1 -18.2%
CCOc1ccc2nc(SCC(=O)Nc3ccc(F)cc3)nc(-c3ccccc3)c2c1 -1.76%
O=C(CCSCc1cccc(Cl)c1)N1CCN(c2ccc(Cl)cc2)CC1 -10.3%
Cc1ccccc1C(=O)N1CC(=O)Nc2ccc(Cl)cc2C1c1ccccc1 (centres undefined) -11.9%
O=C(c1cccc(Cl)c1)N1c2nc(-c3ccco3)nn2C2(CCCCC2)[C@@H]2CCCC[C@@H]21 -13%
COc1ccc(CCNC(=O)CCCCn2c(=O)c3ccccc3n(CC(=O)Nc3c(C)cccc3C)c2=O)cc1OC -9.93%
C#CCn1c(=NC(=O)c2ccc3c(c2)OCCO3)sc2cc(OC)c(OC)cc21 11.3%
COc1cc(OC)cc(N2C(=O)N(Cc3ccc(C(C)(C)C)cc3)c3ccccc3S2(=O)=O)c1 -15.1%
CCOC(=O)c1c(C)[nH]c(C)c1S(=O)(=O)NCC(=O)Nc1cccc(C#N)c1 -13.8%
COc1ccc(S(=O)(=O)N2CCC(C(=O)Nc3ccccc3)CC2)cc1OC -5.77%
COC(=O)c1scc(-c2ccc(C)cc2)c1S(=O)(=O)N1CCN(c2ccccc2)CC1 -13.8%
Cc1nc2ccc(S(=O)(=O)CCC(=O)Nc3ccc(Cl)cc3)cc2s1 -20.5%
Cc1sc2ncn(CC(=O)Nc3ccc(C(C)C)cc3)c(=O)c2c1S(=O)(=O)N1CCN(c2ncccn2)CC1 -24.8%
CC1(C)N=C(SCc2ccccc2Cl)c2ccccc2N1 -1.11% [at 11.5 µM, percent change from vehicle, -100% = no light]
Cc1ccc(S(=O)(=O)c2nnn3c2nc(NC(C)C)c2cc(Cl)ccc23)cc1C 0%
Cc1cccc(-c2noc(-c3cccnc3NCc3ccc(Cl)cc3)n2)c1 1.12%
CCCCNC(=O)CSc1nc2n[nH]c(C)c2c(=N)n1-c1cccc(Cl)c1C -38.9%
COc1ccc2c(c1)sc1ncc(C(=O)NCc3ccccc3F)c(=O)n12 -2.12%
COc1ccc(S(=O)(=O)Nc2ccc3oc4c(c3c2)CCCC4)cc1 -37.4%
CCOc1ccccc1CNC(=O)c1ccc2c(c1)N(Cc1ccc(C)cc1)CCS2 -19.7%
CC(=O)c1cccc(NC(=O)CSc2nc(=O)n(Cc3ccco3)c3c2CCC3)c1 -20.8%
Cc1oc(-c2cccc(Cl)c2)nc1CS(=O)(=O)CC(=O)NC(C)CCc1ccccc1 (centres undefined) -19.9%
O=C(CSc1ccc(-c2cccs2)nn1)Nc1ccccc1C(F)(F)F -18.2%
Cc1ccccc1CNC(=O)C(C)N(c1ccccc1)S(C)(=O)=O (centres undefined) -10.1%
Cc1ccc(NC(=O)C2CCCN(C(=O)c3cnn(-c4ccc(F)cc4)c3-n3cccc3)C2)c(Cl)c1 (centres undefined) -9.01%
O=C(NCCc1ccccc1Cl)C1CCN(c2nc3ccccc3nc2C(F)(F)F)CC1 -10.5%
COc1ccc(-n2c(-c3ccco3)nc3c(cnn3-c3ccc(Cl)cc3)c2=O)cc1 -53.2%
CC1(C)O[C@H]2[C@@H](O1)[C@@H](C(=O)Nc1ccccc1C(F)(F)F)O[C@@H]1OC(C)(C)O[C@@H]12 -45.6%
CCOc1ccc(/C=C/c2nc(C#N)c(NCc3ccccc3)o2)cc1 -42.7%
O=C(CCC1N=C2c3ccccc3N=C(SCc3ccc(F)cc3)N2C1=O)NCCc1ccccc1 (centres undefined) -38.3%
COc1ccc(Cl)cc1NC(=O)C(C)Sc1nc2c(c(=O)[nH]1)CCCC2 (centres undefined) -12.7%
CCc1ccc(NC(=O)CN(c2ccc(Cl)cc2)S(=O)(=O)c2ccsc2C(=O)OC)cc1 -32.2%
CCOc1ccc(NC(=O)c2c(NCc3cccc(OC)c3OC)sc3c2CCC3)cc1 -5.92%
Nc1c(C(=O)Nc2ccccc2Cl)c2ccccn2c1C(=O)c1ccccc1 9.08%
O=C1NCN(c2ccccc2)C12CCN(CCCC(c1ccc(F)cc1)c1ccc(F)cc1)CC2 -32.3%
O=C(C1CCCN(S(=O)(=O)c2cccc3nsnc23)C1)N1CCN(c2ccccc2)CC1 (centres undefined) -48.3%
CCOC(=O)N1CCN(C(=O)CN(c2ccccc2F)S(=O)(=O)c2ccc(C)cc2)CC1 -23.3%
Cc1cc(N2CCC(C)CC2)nc2ccc(NC(=O)Cc3c(F)cccc3Cl)cc12 -23.1%
Cc1ccc(Cn2cc(S(=O)(=O)c3cccc(Cl)c3)c(=O)c3cc(F)c(N4CCCCC4)cc32)cc1 7.23%
Cc1cc(C)cc(NC(=O)CSc2nc(=O)n(CCN3CCOCC3)c3c2CCC3)c1 -7.3%
Cc1ccc(Cl)cc1NC(=O)CSc1nccn1C 2.23%
COC(=O)c1c(NC(=O)Cc2coc3cc(C)ccc23)sc2c1CCC2 -5.18%
CCOC(=O)c1noc2nc(C)n(CC(=O)NC(C)CC)c(=O)c12 (centres undefined) 1.26%
